# Results published in article PMC12152161.
# No constants are given. Whether binding was seen depends on the method and setting. For part of these data: Binding seen in cells or lysates may run through a third protein. Some results given as binding are weak or reduced against the parent protein; the word gives no strength. Tags and fused reporters may be left off the sequences shown.
# T1: full-length KIF1C(WT)−Flag−EGFP (UniProt O43896)
# T1 sequence: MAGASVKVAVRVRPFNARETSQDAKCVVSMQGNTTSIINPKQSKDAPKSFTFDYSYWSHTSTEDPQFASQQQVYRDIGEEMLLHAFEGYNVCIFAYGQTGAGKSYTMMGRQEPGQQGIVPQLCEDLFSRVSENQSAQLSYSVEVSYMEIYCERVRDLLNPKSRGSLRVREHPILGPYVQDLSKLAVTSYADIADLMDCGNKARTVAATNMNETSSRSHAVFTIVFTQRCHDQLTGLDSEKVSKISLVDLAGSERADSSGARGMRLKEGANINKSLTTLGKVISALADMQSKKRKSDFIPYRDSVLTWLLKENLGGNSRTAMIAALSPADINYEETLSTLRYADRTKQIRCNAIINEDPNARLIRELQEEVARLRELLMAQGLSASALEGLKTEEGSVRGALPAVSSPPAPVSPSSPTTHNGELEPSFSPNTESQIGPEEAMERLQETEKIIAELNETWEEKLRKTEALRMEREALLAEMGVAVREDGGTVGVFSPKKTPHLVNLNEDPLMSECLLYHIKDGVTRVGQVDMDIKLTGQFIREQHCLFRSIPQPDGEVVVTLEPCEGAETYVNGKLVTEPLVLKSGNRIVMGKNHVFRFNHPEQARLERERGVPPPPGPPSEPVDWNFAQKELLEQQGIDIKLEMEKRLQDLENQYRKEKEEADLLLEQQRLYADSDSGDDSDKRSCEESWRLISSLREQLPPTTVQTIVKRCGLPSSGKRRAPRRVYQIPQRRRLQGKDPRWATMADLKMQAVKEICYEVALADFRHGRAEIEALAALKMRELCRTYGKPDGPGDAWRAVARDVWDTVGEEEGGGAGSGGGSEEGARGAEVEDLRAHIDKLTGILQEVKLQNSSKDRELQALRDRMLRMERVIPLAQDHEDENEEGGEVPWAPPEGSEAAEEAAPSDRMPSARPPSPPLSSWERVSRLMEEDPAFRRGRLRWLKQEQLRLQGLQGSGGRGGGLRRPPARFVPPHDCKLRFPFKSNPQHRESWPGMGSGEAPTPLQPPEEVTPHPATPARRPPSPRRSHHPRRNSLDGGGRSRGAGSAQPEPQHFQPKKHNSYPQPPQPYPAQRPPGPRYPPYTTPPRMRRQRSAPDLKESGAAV
# T2: His10 − MBP − KIF1C(714–809) (UniProt O43896)
# T2 sequence: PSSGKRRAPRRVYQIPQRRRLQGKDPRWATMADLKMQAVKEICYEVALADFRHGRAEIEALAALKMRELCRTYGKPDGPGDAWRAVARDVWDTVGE
# T3: His10 − MBP−Hook3(553–624) (UniProt Q86VS8)
# T3 sequence: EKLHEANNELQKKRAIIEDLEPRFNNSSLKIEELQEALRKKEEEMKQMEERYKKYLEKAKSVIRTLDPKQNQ
# T4: His10 − MBP − KIF1C(714–809; Y757A ∙ F764A) (UniProt O43896)
# T4 sequence: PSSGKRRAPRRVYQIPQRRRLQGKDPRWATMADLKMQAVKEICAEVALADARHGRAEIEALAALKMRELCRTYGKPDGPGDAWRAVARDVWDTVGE
# Tests used:
# [1] = target: T1, full-length KIF1C(WT)−Flag−EGFP; test: co-IP; HEK293T cells co-expressing KIF1C−Flag−EGFP and Hook3−Myc−FuRed, lysed 16 h after transfection in Pierce IP lysis buffer; immunoprecipitation with anti-Flag M2 and protein A/G agarose, immunoblot with anti-Myc and anti-Flag
# [2] = target: T2, His10 − MBP − KIF1C(714–809); test: native gel or EMSA; His10−MBP-tagged recombinant proteins alone or mixed (10 µM; molar ratio 1:1), incubated 16 h at 4 °C, 10% native gel, 120 V for 2 h on ice, Coomassie staining; both purified
# [3] = target: T3, His10 − MBP−Hook3(553–624); test: as above
# [4] = target: T4, His10 − MBP − KIF1C(714–809; Y757A ∙ F764A); test: as above
Binder,binding [2],binding [4],also measured
"full-length Hook3(WT)−Myc−FuRed (protein, UniProt Q86VS8 1-718) MFSVESLERAELCESLLTWIQTFNVDAPCQTVEDLTNGVVMAQVLQKIDPAYFDENWLNRIKTEVGDNWRLKISNLKKILKGILDYNHEILGQQINDFTLPDVNLIGEHSDAAELGRMLQLILGCAVNCEQKQEYIQAIMMMEESVQHVVMTAIQELMSKESPVSAGNDAYVDLDRQLKKTTEELNEALSAKEEIAQRCHELDMQVAALQEEKSSLLAENQVLMERLNQSDSIEDPNSPAGRRHLQLQTQLEQLQEETFRLEAAKDDYRIRCEELEKEISELRQQNDELTTLADEAQSLKDEIDVLRHSSDKVSKLEGQVESYKKKLEDLGDLRRQVKLLEEKNTMYMQNTVSLEEELRKANAARSQLETYKRQVVELQNRLSEESKKADKLDFEYKRLKEKVDSLQKEKDRLRTERDSLKETIEELRCVQAQEGQLTTQGLMPLGSQESSDSLAAEIVTPEIREKLIRLQHENKMLKLNQEGSDNEKIALLQSLLDDANLRKNELETENRLVNQRLLEVQSQVEELQKSLQDQGSKAEDSVLLKKKLEEHLEKLHEANNELQKKRAIIEDLEPRFNNSSLKIEELQEALRKKEEEMKQMEERYKKYLEKAKSVIRTLDPKQNQGAAPEIQALKNQLQERDRLFHSLEKEYEKTKSQREMEEKYIVSAWYNMGMTLHKKAAEDRLASTGSGQSFLARQRQATSSRRSYPGHVQPATAR",,,binding [1]: binds
"EKLHEANNELQKKRAIIEDLEPRFNNSSLKIEELQEAL (domain or fragment, UniProt Q86VS8 553-590) [His10 − MBP−Hook3(553–590)]",no binding (tested: 10 µM),,
"His10 − MBP − PTPN21(19–308) (domain or fragment, UniProt Q16825 19-308) SKSCLVARIQLLNNEFVEFTLSVESTGQESLEAVAQRLELREVTYFSLWYYNKQNQRRWVDLEKPLKKQLDKYALEPTVYFGVVFYVPSVSQLQQEITRYQYYLQLKKDILEGSIPCTLEQAIQLAGLAVQADFGDFDQYESQDFLQKFALFPVGWLQDEKVLEEATQKVALLHQKYRGLTAPDAEMLYMQEVERMDGYGEESYPAKDSQGSDISIGACLEGIFVKHKNGRHPVVFRWHDIANMSHNKSFFALELANKEETIQFQTEDMETAKYIWRLCVARHKFYRLNQ",,,binding [3]: no binding
"His10 − MBP−Hook3(553–624; V614E) (domain or fragment, UniProt Q86VS8 553-624) EKLHEANNELQKKRAIIEDLEPRFNNSSLKIEELQEALRKKEEEMKQMEERYKKYLEKAKSEIRTLDPKQNQ",no binding,no binding,
"His10 − MBP−Hook3(553–624) (domain or fragment, UniProt Q86VS8 553-624) EKLHEANNELQKKRAIIEDLEPRFNNSSLKIEELQEALRKKEEEMKQMEERYKKYLEKAKSVIRTLDPKQNQ",,no binding,
